Measured values from PubChem BioAssay AID2675 (National Center for Advancing Translational Sciences (NCATS), 2010).
Several values for one entry are separate records, joined by “and”; a condition that tells them apart may be missing. Identical values can stand only once. The campaign covered roughly 280,000 compounds. About 100 (0.036%) were called active. Inconclusive results, whose numbers are uncertain, are shown with a selection of clear calls. Calls follow the shape of the dose curve; as a rule, active = well fitted inhibition curve with a large enough effect in the signal ratio, with a control signal flat (not every such curve was filed as active); inconclusive = small, poorly fitted or top-dose-only effect, or effect the other way, or a change in a side signal; inactive = no such curve, though single readings can be large or run the other way; the % refers to the signal ratio. Potencies of inconclusive entries are doubtful fits and often do not repeat. “Side channel” marks fits to a control or component signal instead of the main read-out.
% is scaled to controls: 0 for no effect and ±100 for the full control effect; potency is read from the fitted curve at half-maximal effect; tags tell the direction and shape of the fitted curve or compound fluorescence and quenching.

Each compound was assayed against Muscleblind-like protein 1 (Homo sapiens) (UniProt Q9NR56) (assay: qHTS Assay for Inhibitors of MBNL1-poly(CUG) RNA binding). Details: TR-FRET MBNL1-His/biotin-(CUG)12 binding, 665/545 ratio; activity change, negative = inhibition: at 57.5 µM (top of the series).
UniProt Q9NR56, sequence (Q9NR56 whole entry, looked up): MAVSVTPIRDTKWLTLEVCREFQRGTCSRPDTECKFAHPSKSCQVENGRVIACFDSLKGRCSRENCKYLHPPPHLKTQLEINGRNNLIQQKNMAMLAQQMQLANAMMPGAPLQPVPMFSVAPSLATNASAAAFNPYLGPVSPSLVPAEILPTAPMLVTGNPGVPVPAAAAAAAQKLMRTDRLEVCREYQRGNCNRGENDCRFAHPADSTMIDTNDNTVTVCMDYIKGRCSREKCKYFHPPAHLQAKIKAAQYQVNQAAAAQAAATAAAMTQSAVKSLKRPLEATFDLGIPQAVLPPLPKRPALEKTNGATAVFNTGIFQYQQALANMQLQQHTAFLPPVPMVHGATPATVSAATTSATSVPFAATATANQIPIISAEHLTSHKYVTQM
Outline: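 TR-FRET between His-tagged MBNL1 and biotin-(CUG)12 RNA, detected with Tb anti-His antibody (0.055 ng/ul) and streptavidin-XL665 (5 nM), 60 min at room temperature. Compounds titrated 92 nM to 58 uM; 665/545 nm ratio normalized to buffer and complex controls.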
With `COc1ccc(N=Cc2c(O)n(-c3cccc(C)n3)c(=O)c3ccccc23)cc1` the Potency was inconclusive: 14.1 µM [quencher, side channel, partial curve].
`O=C(N=Nc1c(O)[nH]c2ccccc12)c1ccco1` was tested, and the Potency was inconclusive: 12.6 µM [quencher, side channel, partial curve].
With `CC1=C(C(=O)OCc2ccc3c(c2)OCO3)C(c2ccc(O)c([N+](=O)[O-])c2)NC(=O)N1` (stereo not drawn) the “activity change, negative = inhibition” value was inactive: 5.42%.
In the case of `NC(=NCCc1ccccc1)c1cccc([N+](=O)[O-])c1`, the Potency is reported as inconclusive: 7.08 µM [quencher, side channel, partial curve].
With `CCOC(=O)c1c(=O)n(O)c2ccc(C)cc2[n+]1[O-]` the Potency was inconclusive: 31.6 µM [quencher, side channel, single point].
`CC(C)(C)c1cc(NC(=O)COC(=O)c2ccc3c(=O)n4c(nc3c2)CCC4)n(-c2ccccc2)n1` was tested, and the Potency was inconclusive: 8.91 µM [quencher, side channel, single point].
For `CCOCC(=O)Nc1cccc(OC)c1`, the “activity change, negative = inhibition” value was inactive: 13%.
For `O=c1[nH]c2cc([N+](=O)[O-])c([N+](=O)[O-])cc2[nH]c1=O`, the Potency was inconclusive: 12.6 µM [quencher, side channel, partial curve] and inconclusive: 7.94 µM [quencher, side channel, partial curve].
`CCN1C(=S)SC(=O)C1=C1C=C(C)N(Cc2ccco2)C(C)=C1` was tested, and the Potency was inconclusive: 10 µM [quencher, side channel, partial curve].
In the case of `O=C1c2sc3nc4n(c(=O)c3c2CCC1Br)CCCCC4` (stereo not drawn), the Potency is reported as inconclusive: 11.2 µM [quencher, side channel, partial curve].
For `O=C(Cc1ccccc1[N+](=O)[O-])OCc1cccc([N+](=O)[O-])c1`, the Potency was inconclusive: 20 µM [quencher, side channel, partial curve].
`COc1cccc2cc(C(=O)c3ccc([N+](=O)[O-])cc3)oc12` was tested, and the Potency was inconclusive: 3.55 µM [quencher, side channel, full curve].
`CCOc1ccc(N(CC(=O)NC2CCCCCC2)S(=O)(=O)c2c(C)noc2C)cc1` was tested, and the “activity change, negative = inhibition” value was inactive: -1.52%.
`CCCCn1c(=S)[nH]c2ccccc2c1=O` was tested, and the Potency was inconclusive: 0.708 µM [quencher, side channel, partial curve].
With `Cc1ccc(C)c(NC(=O)N2CCCCCC2)c1` the “activity change, negative = inhibition” value was inactive: -6.31%.
For `CC(C)(C)NC(=O)C1CCN(S(=O)(=O)c2cccc3nsnc23)CC1`, the Potency was inconclusive: 11.2 µM [quencher, partial curve].
For `CC(C)=C1SC(N2CCCCC2)=NC1=O`, the Potency was inconclusive: 7.08 µM [quencher, side channel, single point].
In the case of `Cc1cc(=O)[nH]c(SCC(=O)Nc2ncc(S(=O)(=O)c3ccc([N+](=O)[O-])cc3)s2)n1`, the Potency is reported as inconclusive: 28.2 µM [quencher, side channel, partial curve].
`Cc1ccccc1NC(=O)N1CCc2ccccc2C1` was tested, and the Potency was inconclusive: 6.31 µM [fluorescent, side channel, single point].
For `CCOc1cc(/C=C2/C(=O)ON=C2C)ccc1OCc1ccccc1`, the “activity change, negative = inhibition” value was inactive: 9.73%.
With `Cc1cc(C)c(C(=O)Nc2ccc(S(=O)(=O)Nc3onc(C)c3C)cc2)c(C)c1` the Potency was inconclusive: 11.2 µM [fluorescent, side channel, partial curve, poor fit].
`Cc1c(=O)n(OCc2ccc(Cl)cc2)c2ccccc2[n+]1[O-]` was tested, and the Potency was inconclusive: 3.16 µM [quencher, side channel, full curve].
For `O=C(c1nc2nc(-c3ccccc3)cc(C(F)(F)F)n2n1)N1CCOCC1`, the Potency was inconclusive: 14.1 µM [quencher, side channel, single point].
With `CCN(c1ccccc1)S(=O)(=O)c1ccc(Cl)c(NC(=O)COC(=O)c2cc(O)c3ccccc3c2O)c1` the Potency was inconclusive: 25.1 µM [quencher, side channel, partial curve].
For `Cc1cc(C)c(OCC(=O)OCCNC(=O)c2cccnc2)c(C)c1`, the Potency was inconclusive: 1.12 µM [fluorescent, side channel, partial curve].
For `COc1ccc(C2CC(=O)c3cnc(N4CCN(Cc5ccccc5)CC4)nc3C2)cc1` (stereo not drawn), the Potency was inconclusive: 35.5 µM [quencher, side channel, single point].
For `CN1C(=O)/C(=C2/C=Cc3ccccc3N2CCCS(=O)(=O)O)SC1=S`, the Potency was inconclusive: 7.08 µM [quencher, side channel, partial curve].
For `CC(C)(C)C(=O)Nc1ccc(C(=O)N/N=C/C2CC3C=CC2C3)cc1` (stereo not drawn), the Potency was inconclusive: 0.1 µM [fluorescent, side channel, full curve, poor fit].
With `CC(C)N(Cc1ccccc1)C(=O)C1CCCN(c2ncnc3c2nc2n3CCCCC2)C1` (stereo not drawn) the “activity change, negative = inhibition” value was inactive: 2.63%.
In the case of `COc1ccccc1/C=C1/C(=O)N(c2ccccc2)N=C1C`, the “activity change, negative = inhibition” value is reported as inactive: -8.67%.
For `COc1ccccc1NC(=O)C1CCCN1S(=O)(=O)c1cccc2nsnc12` (stereo not drawn), the Potency was inconclusive: 14.1 µM [quencher, side channel, partial curve].
In the case of `CC(=O)Oc1ccc2c3c(c(=O)oc2c1)CCCC3`, the “activity change, negative = inhibition” value is reported as inactive: 5.9%.
In the case of `Cc1cccc(N/C=C/C(=O)c2cccs2)c1C`, the “activity change, negative = inhibition” value is reported as inactive: 15.2%.
`COc1ccc(/C=C2\SC(=O)N(CCNC(=O)C3CC4C=CC3C4)C2=O)cc1` (stereo not drawn) was tested, and the Potency was inconclusive: 17.8 µM [quencher, side channel, partial curve].
In the case of `CN1/C(=C\C(=O)c2ccco2)c2ccccc2CC1(C)C`, the Potency is reported as inconclusive: 39.8 µM [quencher, side channel, single point].
With `O=C(CNCC1CCCO1)Nc1ccccc1-n1cccc1` (stereo not drawn) the Potency was inconclusive: 3.98 µM [quencher, side channel, single point].
In the case of `Cc1ccc2nc(C)c(Cl)c(=O)n2c1`, the Potency is reported as inconclusive: 31.6 µM [quencher, single point].
For `CC(=O)NN1C(=O)/C(=C2/Sc3ccc(Cl)cc3N2C)SC1=S`, the “activity change, negative = inhibition” value was inactive: 16.9%.
